Assay results as given in PubChem BioAssay AID1508624 (National Center for Advancing Translational Sciences (NCATS), 2021).
About 120 (0.25%) of roughly 48,000 compounds were called active. Inconclusive results (about 4%) are left out. Calls follow the shape of the dose curve; as a rule, active = well fitted activation curve with a large enough effect; inconclusive = small, poorly fitted or top-dose-only effect, or another doubt; inactive = no such curve, though single readings can be large or run the other way. Some of the results follow.

assay: Primary qHTS for Identification of Small Molecule Activators of Huntingtin-Antisense Promoter Activity; details: HEK293 HTT-AS promoter firefly luciferase reporter (activity 0% = vehicle and -100% = no light), 24 h; series mostly up to 57.5 µM; activity change, positive = activation: at the top concentration; also: nearly all actives have a fitted effect of over 55% in size
In short: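 Quantitative HTS used concentration series of up to 57.5 uM final on HEK293 luciferase reporter cells, 24 h at 37 degrees C. Readout was Dual-Glo firefly luminescence.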

SMILES	activity change, positive = activation
CC1=C(C(=O)Nc2ccc(C)cc2C)C(c2ccc[nH]2)n2ncnc2N1 (stereo unspecified)	inactive: -10.2%
CSc1nnc2c(n1)OC(c1cccc(O)c1Cl)Nc1ccccc1-2 (stereo unspecified)	inactive: -12.2%
N#Cc1cc2c(=O)n3ccccc3nc2n(-c2nnc(SCc3ccccc3F)s2)c1=O	inactive: -7.84%
CC(C(=O)NCc1ccc(Cl)cc1)n1ccc2cc(S(=O)(=O)N3CCCC3)ccc21 (stereo unspecified)	inactive: -31.2%
N#C/C(=C\c1ccccc1F)c1nc2ccccc2c(=O)[nH]1	inactive: -4.94%
Cc1cc(C)cc(NS(=O)(=O)c2ccc3[nH]cc(C(=O)NCc4ccco4)c(=O)c3c2)c1	inactive: -58.4%
O=C(/C=C/c1ccccc1)Nc1nc(-c2cccs2)ns1	inactive: 16.8%
CC(=O)c1ccc(NC(=O)CN2C(=O)CCc3cc(S(=O)(=O)N4CCC(C)CC4)ccc32)cc1	inactive: -10%
COc1cccc(NC(=O)CCc2nnc3n(CC(C)C)c(=O)c4ccccc4n23)c1	inactive: 6.75%
O=C(Nc1ccc(Cl)c(C(F)(F)F)c1)c1cc2nc(-c3ccc4c(c3)OCO4)cc(C(F)(F)F)n2n1	inactive: 0.319%
CCC(O)c1nc2ccccc2n1CCOc1cc(C)cc(C)c1 (stereo unspecified)	inactive: -43%
COc1ccc(NC(=O)CSc2n[nH]c(-c3ccccc3)n2)cc1Cl	inactive: -21.9%
O=C(Nc1ccccc1F)c1oc2ccccc2c1NC(=O)C12CC3CC(CC(C3)C1)C2	inactive: 3.98%
Cc1ccc(N(CC(=O)Nc2ccc(OC(F)(F)F)cc2)S(=O)(=O)c2c(C)noc2C)cc1	inactive: -31.9%
Cc1cccc(-c2[nH]c(C(C)(C)C)nc2-c2ccc3nccnc3c2)n1	inactive: -24.2%
Cc1[nH]c2c(C)cccc2c1CCNC(=O)c1cc2ccccc2oc1=O	inactive: -4.27%
COc1cccc(N2CCN(C(=O)c3nc(-c4ccc(Cl)cc4)n4c3CCCCC4)CC2)c1	inactive: -15.6%
COCCn1c(SCC(=O)c2c[nH]c3ccccc23)nc2cc(C(=O)NCC(C)C)ccc2c1=O	inactive: -13.4%
Cc1ccc(O)c(NC(=O)c2nc3nc(C)cc(C(F)F)n3n2)c1	inactive: 9.26%
O=c1oc2ccc3ccccc3c2cc1-c1nnc(Nc2cc(C(F)(F)F)ccc2Cl)s1	inactive: 15%
O=S(=O)(c1cccc(Cl)c1)c1nnn2c1nc(NC1CCCC1)c1sccc12	inactive: -30.5%
COC(=O)c1ccc(NC(=O)C2CCN(S(=O)(=O)c3ccc4c(c3)CCCN4C(C)=O)CC2)cc1	inactive: -36%
CCc1nnc2n1N(C(C)=O)C(c1ccc(C(C)(C)C)cc1)=C(C(C)=O)S2	inactive: -21.8%
Cc1nc(N2CCCC2)ncc1C(=O)NCc1ccccc1Cl	inactive: -0.137%

SMILES	activity change, positive = activation
CCc1ccc(CNC(=O)c2cc3c(s2)-c2ccccc2OC3)cc1	inactive: -18%
COc1cc(NC(=O)CSc2nc3nc(C)c(Cc4ccccc4)c(C)n3n2)cc(OC)c1OC	inactive: 0.248%
CCOC(=O)c1cc2c(=O)n3ccccc3nc2n(CC2CCCO2)c1=NC(=O)c1cc(C)cc(C)c1 (stereo unspecified)	inactive: -28.2%
Cc1[nH]c2ccccc2c1C1(O)C(=O)N(Cc2ccc(Cl)cc2)c2ccccc21 (stereo unspecified)	inactive: -24.1%
CC[C@H](C)n1cc(C)c2c(C(=O)NCc3c(C)cc(C)[nH]c3=O)cc(-c3ccc(N4CCNCC4)nc3)cc21	inactive: -2.9%
CCc1cccc(C)c1Nc1c(-c2cccc(O)c2)nc2sccn12	inactive: -22.2%
COc1ccc(CC(=O)Nc2sc3c(c2C(=O)Nc2ccc(C)cc2)CCCCC3)cc1	inactive: 0.686%
Nc1cccc(S(=O)(=O)N2CCCN(S(=O)(=O)c3ccc4c(c3)OCCO4)CC2)c1	inactive: -19.2%
CCOC(=O)C1CCCN(S(=O)(=O)c2ccc3c(c2)N(C)C(=O)CC(=O)N3C)C1 (stereo unspecified)	inactive: -12.4%
O=C(Cn1ncc2c3ccccc3n(Cc3ccc(Cl)cc3)c2c1=O)NC1CCCCCC1	inactive: -3.89%
CCc1ccc(CNC(=O)c2cnc3sc(N(CC)CC)nn3c2=O)cc1	inactive: -22.9%
COCCCNC(=O)Cn1c(=O)n(-c2ccc(Cl)cc2)c(=O)c2c3c(sc21)CCCCC3	inactive: -10.3%
COc1ccc(CCNC(=O)CN2C(=O)COc3ccc(S(=O)(=O)N4CCCCCC4)cc32)cc1OC	inactive: -18.7%
Cc1ccc(NC(=O)c2ccc(CN3CC(=O)N4CCCCC4C3=O)cc2)cc1C (stereo unspecified)	inactive: -1.99%
CCOc1ccc(-n2c(=O)c3sc4ccccc4c3n(Cc3ccc(F)cc3)c2=O)cc1	inactive: -0.0966%
CC[C@@]1(O)C(=O)OCc2c1cc1n(c2=O)Cc2cc3cc(O)ccc3nc2-1	inactive: -37.7%
CCc1ccccc1NC(=O)C(=O)NCCc1sc(-c2cccc(C)c2)nc1C	inactive: -10.4%
CC(C)c1cnc2c(c1SCC(=O)Nc1cccc([N+](=O)[O-])c1)c(=O)n(C)c(=O)n2C	inactive: -26.3%
COCCCNc1ncnc2c1nnn2C	inactive: -5.23%
CCn1c(SCC(=O)Nc2ccc(C)c(C)c2)nnc1-c1nonc1NC(C)=O	inactive: -16.1%
CCCCC(CC)Cn1c(Oc2ccccc2)nc2c1c(=O)n(C)c(=O)n2C (stereo unspecified)	inactive: -24.6%
Cc1ccc(Cl)cc1N1CCN(S(=O)(=O)c2ccc3c(c2)CC(=O)N3C)CC1	inactive: -15.3%
CCOC(=O)CNC(=O)Cn1nc(N2CCN(c3ccccc3)CC2)ccc1=O	inactive: -12.1%
CCN(CC)C(=O)C1CCCN(c2ncnc3c2nc2n3CCCCC2)C1 (stereo unspecified)	inactive: -1.77%

SMILES	activity change, positive = activation
COc1ccc(CCNC(=O)c2cc3c(=O)[nH]c4ccc(C)cc4c3s2)cc1OC	inactive: -33%
COC(=O)c1ccccc1NC(=O)CCCS(=O)(=O)c1nc(-c2ccccc2OC)cc(C(F)(F)F)n1	inactive: -5.87%
COC(=O)c1ccc(NC(=O)c2c(NCc3ccc(OC)c(OC)c3)sc3c2CCCC3)cc1	inactive: -22.5%
CCOc1ccccc1CNC(=O)CN1C(=O)C2CCCCN2c2ccc(C(=O)N(C)C)cc21 (stereo unspecified)	inactive: -5.38%
Cc1cc(NC(=O)CSc2ncc(C(=O)Nc3ccccc3)c(=O)n2C)no1	inactive: -2.77%
O=C(NCc1ccccn1)c1nn(-c2ccccc2Cl)nc1CO	inactive: -6.53%
COc1ccccc1CNC(=O)C(Cc1ccccc1)NS(=O)(=O)c1ccc2c(c1)CCN2C(C)=O (stereo unspecified)	inactive: 10.9%
Cc1ccccc1NC(=O)c1ccc(CNS(=O)(=O)c2ccc3c(c2)C(C)(C)C(=O)N3C)cc1	inactive: -18.7%
CSc1ncc(C(=O)Nc2cccc(Cl)c2C)c(-c2ccccc2)n1	inactive: -10.8%
CCN(CC)C(=O)C1=C(C)Nc2nc3ccccc3n2C1c1ccc(Cl)cc1 (stereo unspecified)	inactive: -2.03%
CC(=O)OC/C=C(C)/C=C/C=C(C)/C=C/C1=C(C)CCCC1(C)C	inactive: 5.31%
Cc1ccc(Cl)cc1N(C)C(=O)c1cc2ccc3cccnc3c2[nH]1	inactive: -8.26%
CCNC(=O)CC1C(=O)N(c2ccc(F)cc2)C(=O)N1Cc1ccc(C)cc1 (stereo unspecified)	inactive: -8.19%
CCCCOc1ccc(C(=O)NCCc2csc3nc(-c4ccccc4F)nn23)cc1	inactive: -11.4%
CCOc1ccccc1C(=O)NCC(c1ccc(N(C)C)cc1)N1CCCC1 (stereo unspecified)	inactive: -5.63%
CSc1ccc(CCNC(=O)c2ccc3c(c2)c(C)c(C)n3Cc2ccc(F)cc2)cc1	inactive: -22.9%
CCn1c(CN2CCN(C)CC2)nc2cc(NC(=O)c3cc(OC)c(OC)c(OC)c3)ccc21	inactive: 4.27%
CCOc1ccccc1C1Nc2ccccc2-c2nnc(SCc3ccccc3)nc2O1 (stereo unspecified)	inactive: 25.4%
Cc1c(C(=O)NCc2ccccc2)oc2c1-c1[nH]ncc1CC2	inactive: 16.5%
COc1ccc(Nc2cc(C(=O)NCCCN(C)C3CCCCC3)c3ccccc3n2)cc1	inactive: -22%
CCCN(C(=O)Cn1nc(Cc2ccncc2)c2ccccc2c1=O)c1ccccc1C	inactive: -41.9%
CCOc1ccc(-c2nnc(SCC(=O)NCCc3ccccc3)nc2-c2ccc(OCC)c(OC)c2)cc1OC	inactive: -9.59%
COc1ccc(Br)cc1CNC(=O)c1ccc(-n2c(C)cc3c2CCC(C)C3)cc1 (stereo unspecified)	inactive: -0.0298%
COCCCn1c(=N)c(C(=O)NC2CCCC2)cc2c(=O)n3cc(C)ccc3nc21	inactive: -4.71%

SMILES	activity change, positive = activation
Cc1cc(O)c(CN2CCN(c3ccc(F)cc3)CC2)c2oc(=O)cc(C)c12	inactive: -15.4%
Cc1cccc(C(=O)Nc2nnc(S(=O)(=O)N3c4ccccc4CC3C)s2)c1 (stereo unspecified)	inactive: -68.6%
CCOc1ccc(OCC)c(NC(=O)c2c(C)nn(-c3ccccc3)c2-n2cccc2)c1	inactive: -31.7%
COc1ccc(CCCc2nnc(SCC(=O)Nc3ccc(Cl)cc3)o2)cc1	inactive: -0.124%
Cc1nn(C)c2c1c(C(F)(F)F)cc(=O)n2CC(=O)NC(C)(C)C	inactive: -6.74%
Cc1oc2ncnc(N3CCCCC3)c2c1C(=O)Nc1cccc(F)c1	inactive: -19.4%
CCc1ccc(CNC(=O)c2sc3ncnc(N(C)C4CCCCC4)c3c2C)cc1	inactive: -4.39%
COc1ccc(-c2cc(-c3ccc(F)cc3)nc3c2COc2ccccc2-3)cc1	inactive: -8.69%
Cc1ccccc1CN1C(=O)C(O)(CC(=O)c2cccc(Br)c2)c2ccccc21 (stereo unspecified)	inactive: -29.2%
O=C(NC1CCCCC1)/C(=C/c1ccc(Cl)cc1)NC(=O)c1ccccc1	inactive: -10%
COc1cccc(CNC(=O)c2ccc(CS(=O)Cc3ccc(Cl)cc3)o2)c1 (stereo unspecified)	inactive: -23%
Cc1ccc(C(=O)CSc2nnc3ccc4ccccc4n23)cc1	inactive: 6.85%
N#Cc1cc2c(=O)n3ccccc3nc2n(-c2nnc(SCc3ccccc3)s2)c1=O	inactive: 3.36%
COc1cccc2nc(-c3cccs3)nc(NN3C(=O)C=C(C)C3=O)c12	inactive: -74.8%
Cc1ccc(CNC(=O)C2CCN(c3ncnc4c3nc3n4CCCCC3)CC2)cc1	inactive: -2.13%
CCOC(=O)C1CCCN(S(=O)(=O)c2cc(-c3cc(C)no3)ccc2C)C1 (stereo unspecified)	inactive: -35.6%
CCC(=O)N1c2ccc(S(=O)(=O)N3CCN(c4ccccc4Cl)CC3)cc2CC1C (stereo unspecified)	inactive: -40.5%
CCn1c(=O)cc(OCC(=O)Nc2ccccc2Cl)c2ccccc21	inactive: -36.7%
CCOc1ccc(CCNC(=O)c2nn(-c3ccc(OC)cc3)c(=O)c3c2c2ccccc2n3C)cc1OCC	inactive: -9.94%
Cc1ccc2[nH]c3c(=O)n(CC(=O)N(C)Cc4ccccc4)ncc3c2c1	inactive: -16.4%
O=C(Cc1ccc(F)cc1)NCCc1csc(-c2ccc(C(F)(F)F)cc2)n1	inactive: -34.6%
CCOC(=O)c1cnc(NCc2ccc(Cl)cc2)c2ccccc12	inactive: -12.2%
Cn1c(CN2CCCCC2)nc2cc(NC(=O)c3ccc(Cl)cc3)ccc21	inactive: -39.1%
CCN(CC)C(=O)c1ccccc1NC(=O)c1cccc(S(=O)(=O)N2CCC(C)CC2)c1	inactive: -9.16%
